# In PMC4336329 (PLoS ONE, 2015):
# The whole screen tested about 310,000 compounds, of which about 14,000 (4.5%) showed an effect of 50% or more. The effect is printed as a negative number. Some of the results follow.
# Molecular target: human ether-à-go-go-related gene (hERG) potassium channel (human, UniProt Q12809)
# Assay: primary screen, population patch clamp on CHO cells stably expressing hERG
# 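Note: peak tail current of the secondary pulse compared with the same well before compound.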
# Chain of human ether-à-go-go-related gene (hERG) potassium channel (Q12809 whole entry, looked up): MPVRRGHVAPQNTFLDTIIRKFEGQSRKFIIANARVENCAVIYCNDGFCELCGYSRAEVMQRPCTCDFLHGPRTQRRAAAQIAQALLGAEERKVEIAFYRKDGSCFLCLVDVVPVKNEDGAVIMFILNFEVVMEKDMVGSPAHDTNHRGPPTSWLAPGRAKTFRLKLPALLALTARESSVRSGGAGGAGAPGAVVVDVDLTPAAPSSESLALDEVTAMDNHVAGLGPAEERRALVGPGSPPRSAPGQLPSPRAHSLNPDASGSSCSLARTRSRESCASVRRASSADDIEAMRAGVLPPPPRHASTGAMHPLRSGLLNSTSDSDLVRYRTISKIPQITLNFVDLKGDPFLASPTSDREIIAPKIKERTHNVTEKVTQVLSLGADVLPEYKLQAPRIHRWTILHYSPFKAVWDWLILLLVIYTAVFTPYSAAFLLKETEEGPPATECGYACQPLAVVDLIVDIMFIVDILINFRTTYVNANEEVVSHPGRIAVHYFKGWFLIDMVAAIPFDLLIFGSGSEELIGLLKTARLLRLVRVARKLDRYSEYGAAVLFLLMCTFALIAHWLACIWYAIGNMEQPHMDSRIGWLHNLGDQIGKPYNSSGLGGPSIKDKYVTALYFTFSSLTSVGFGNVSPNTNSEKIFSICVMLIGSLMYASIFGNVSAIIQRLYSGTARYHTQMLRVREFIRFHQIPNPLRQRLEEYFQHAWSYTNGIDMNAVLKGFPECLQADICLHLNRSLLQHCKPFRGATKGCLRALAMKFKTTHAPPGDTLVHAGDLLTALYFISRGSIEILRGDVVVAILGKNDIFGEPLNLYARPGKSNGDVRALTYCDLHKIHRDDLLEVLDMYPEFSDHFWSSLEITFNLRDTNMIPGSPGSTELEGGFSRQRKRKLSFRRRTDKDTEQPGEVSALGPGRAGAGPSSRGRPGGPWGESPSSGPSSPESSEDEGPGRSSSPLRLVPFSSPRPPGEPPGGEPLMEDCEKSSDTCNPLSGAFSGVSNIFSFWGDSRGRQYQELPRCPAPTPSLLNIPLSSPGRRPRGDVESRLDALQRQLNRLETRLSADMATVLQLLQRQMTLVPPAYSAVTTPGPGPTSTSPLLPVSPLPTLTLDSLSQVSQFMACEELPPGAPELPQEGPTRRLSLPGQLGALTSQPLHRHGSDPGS
row,SMILES,"hERG current change (%, negative = inhibition) at 10uM"
1,COc1ccccc1NC(=O)CSc1nc(=O)n(CCN2CCOCC2)c2c1CCC2,-12.2%
2,COc1ccc(CCNC(=O)C(=O)NCC2OCCN2S(=O)(=O)c2ccc(Cl)cc2)cc1 (stereo not drawn),7.58%
3,COC(=O)c1ccc(NC(=O)CC(=O)Nc2ccc(C(=O)OC)cc2)cc1,14.1%
4,Cc1ccc(C(=O)NNC(=O)c2cccc(Br)c2)cc1,-3.61%
5,COC(=O)Cc1c(C(=O)OC)nnn1-c1ccc(OC(F)(F)F)cc1,5.77%
6,CC(=O)NCC1CCCN(C(=O)c2oc3c(F)cccc3c2C)C1 (stereo not drawn),21.2%
7,CCOC(=O)c1cc(NCc2cccs2)ccc1N1CCOCC1,-3.79%
8,CN(Cc1ccco1)C(=O)c1cc2c(s1)-c1ccc(Cl)cc1S(=O)(=O)C2,-1.74%
9,COc1ccc(NS(=O)(=O)c2ccc(Oc3c(C#N)cccc3C#N)cc2)cc1,-13.1%
10,O=C(c1ccc(Cl)c(S(=O)(=O)N2CCCCCC2)c1)N1CCCC(C(F)(F)F)C1 (stereo not drawn),-58.9%
11,COc1ccc(Oc2cnn(-c3ccccc3)c(=O)c2Br)cc1,9.51%
12,Cc1c(NC(=O)COC(=O)CCC(=O)c2ccc(Cl)cc2)c(=O)n(-c2ccccc2)n1C,1.22%
13,CCN1CCN(C(=O)c2cc(COc3ccc(C(C)=O)cc3OC)on2)CC1,9.41%
14,C/C(N)=C(/C#N)C(=O)COC(=O)C(NS(=O)(=O)c1ccc(Cl)cc1)C(C)O (stereo not drawn),23.1%
15,O=C(NCCN1CCOCC1)c1ccccc1N1C(=O)[C@@H]2Cc3c([nH]c4ccccc34)C(c3ccccc3)N2C1=O (stereo partly drawn),-20.4%
16,COC(=O)[C@H](Cc1ccccc1)NC(=O)[C@@H]1C[C@H]1[C@@H](NC(=O)OCc1ccccc1)c1ccccc1,-34.1%
17,COc1ccc(-c2cc(=O)c3cc(OC)ccc3[nH]2)cc1,-12.4%
18,Cc1ccc2cc(CCNC(=O)c3ccc(S(=O)(=O)N4CCCCC4)cc3)c(=O)[nH]c2c1,2.63%
19,CCCc1[nH][nH]c(=O)c1C(c1ccccc1)C(C#N)C#N (stereo not drawn),-14.1%
20,CCc1nnc(NC(=O)Cn2nc(-c3ccc(OC)c(OC)c3)ccc2=O)s1,8.01%
21,Cc1ccc2oc(-c3cccc(NC(=O)c4ccc(Br)o4)c3C)nc2c1,-4.19%

row,SMILES,"hERG current change (%, negative = inhibition) at 10uM"
1,CN(C)c1ccc(/C=N/N=C2/NC(=O)/C(=C/c3ccc([N+](=O)[O-])cc3)S2)cc1,4.42%
2,COC(=O)c1c(C(=O)OC)c2ccncn2c1Cl,7.09%
3,Cc1ccc(S(=O)(=O)N(C)c2ccc(C(=O)NCc3cccnc3)cc2)cc1,-34.2%
4,CSCCC(N=Cc1c(O)n(-c2ccc(Cl)cc2)c(=O)[nH]c1=O)C(=O)OC(C)(C)C (stereo not drawn),-17.8%
5,CSCC[C@H](NC(=O)OC(C)(C)C)C(=O)N1CCC(C(=O)N[C@@H](C)C(=O)O)CC1,-1.05%
6,N#Cc1cccc(NC(=O)CNC(=O)Cc2ccccc2)c1,15.9%
7,CCN(CC(=O)Nc1cccc(OC)c1)CC(=O)Nc1ccccc1C,3.9%
8,CC(Oc1ccc(Cl)cc1)C(=O)Nc1ccc(S(=O)(=O)Nc2nccs2)cc1 (stereo not drawn),-3.67%
9,CN1CCN(C(c2ccccn2)c2cc(Cl)c3cccnc3c2O)CC1 (stereo not drawn),-23.5%
10,CN(C)c1cccc(Oc2nc3c(c(=O)n(C)c(=O)n3C)n2C)c1,3.59%
11,Clc1cccc(-c2cc3nc4c(c(NCc5ccco5)n3n2)CCCC4)c1,7.34%
12,CCN(CC)C(=O)C(C)N(C#N)c1nc(Cl)nc(N(C)C)n1 (stereo not drawn),13.8%
13,O=C(NCc1nnnn1-c1ccc(F)c(F)c1)c1cc2ccccc2o1,-25.6%
14,Cc1oc(-c2ccccc2Cl)nc1CN1CCCCC1CO (stereo not drawn),-20.5%
15,CC(=O)c1ccc(NC(=O)CN2C(=O)/C(=C/C=C/c3ccccc3)SC2=S)cc1,-0.256%
16,O=C(O)CCn1cc(-c2ccc(Cl)cc2)nc1-c1ccncc1,11.5%
17,C=CCOC(=O)N1CCN(c2cccc(C(F)(F)F)c2)CC1,-23.3%
18,O=C1CCCN1c1ccc(S(=O)(=O)Oc2ccc(Cl)cc2)cc1[N+](=O)[O-],-38.7%
19,O=C(c1ccccc1)[C@@H]1[C@@H]2C(=O)N(c3ccc(F)cc3)C(=O)[C@@H]2C2CCCN21 (stereo partly drawn),5.24%
20,CCOC(=O)N1CCN(C(C)C(=O)c2c[nH]c3ccccc23)CC1 (stereo not drawn),-7.38%
21,CCc1ccc2[nH]c(=O)c(CN(CCN3CCCC3)C(=O)NC3CCCCC3)cc2c1,-40.9%

row,SMILES,"hERG current change (%, negative = inhibition) at 10uM"
1,Cc1cc(C)n(-c2nc3c(c(=O)[nH]c(=O)n3C)n2Cc2ccccc2)n1,11.7%
2,O=C(NN1CC(=O)N(c2cc(Cl)cc(Cl)c2)CC1=O)c1sccc1Cl,-0.682%
3,CC(C)=NOc1nc(NC(=O)NS(=O)(=O)c2ccccc2Cl)nc(N(C)C)n1,26.5%
4,CCN(C(=O)CN1C(=O)NC2(CCCc3ccccc32)C1=O)c1ccc(F)cc1 (stereo not drawn),7.72%
5,Cc1ccc(CCC(=O)Nc2cc(Cl)ccc2Cl)o1,5.91%
6,CCOc1ccccc1NC(=O)COC(=O)CN(C)S(=O)(=O)c1ccc(C)cc1,-13.5%
7,O=C(Nc1ccccc1N1CCCC1)c1cc(Cl)ccc1Cl,-2.72%
8,Cc1ccc(S(=O)(=O)CCC(=O)OCC(=O)NC(C)c2ccc(F)cc2)cc1 (stereo not drawn),4.41%
9,CCOC(=O)C1CCCN(C(=S)Nc2ccc(F)cc2)C1 (stereo not drawn),11.3%
10,COc1cccc(C(=O)/C=C/Nc2ccc(S(=O)(=O)Nc3cc(OC)nc(OC)n3)cc2)c1,5.92%
11,CC(=O)c1cccc(NC(=O)C2CC(c3ccc(F)cc3)=NO2)c1 (stereo not drawn),11.6%
12,CSc1ccccc1OCc1cc(C(=O)NC(C)Cc2cccc(C)n2)no1 (stereo not drawn),-3.04%
13,O=C(CCNC(=O)c1ccccc1)NCc1ccccc1F,-7.91%
14,Cc1csc(Nc2nc(N)c(C(=O)Nc3ccccc3)o2)n1,17.1%
15,O=C(COC(=O)[C@H](Cc1ccccc1)NC(=O)c1cccs1)NC1CC1,-1.96%
16,NC(=O)C1(N2CCCCC2)CCN(C(=O)NC23CC4CC(CC(C4)C2)C3)CC1,-10.8%
17,CC1CCN(C(=O)c2[nH]cnc2C(=O)N(C)Cc2ccccc2)CC1,16.3%
18,Cc1ccc(SCC2=NNC(=O)C2)cc1,-3.78%
19,C=CCn1c(=O)c2ccccc2n2c(SC(C)C(=O)Nc3nc(-c4ccccc4)cs3)nnc12 (stereo not drawn),-40.6%
20,Cc1ccc(C)c(S(=O)(=O)N2CCCOC2CNC(=O)C(=O)NCc2ccccn2)c1 (stereo not drawn),5.01%
21,I.c1ccc(Sc2cccc3ccccc23)c(CNC2=NCCN2)c1,-13.2%

row,SMILES,"hERG current change (%, negative = inhibition) at 10uM"
1,COCCCNC(=O)c1ccc2c(=O)n(C3CCCC3)c(=S)[nH]c2c1,-2.89%
2,CCOC(=O)N/N=C(\C)c1ccccc1OC(F)F,-8.58%
3,COc1ccc(N(CC(=O)Nc2cc(C(=O)O)ccc2C)S(=O)(=O)c2c(C)noc2C)cc1,-15.4%
4,COC(=O)c1ccc(NC(=O)C2CCCN2C(=O)OCc2ccccc2)cc1 (stereo not drawn),3.3%
5,CC(C)(C)NC(=O)C[n+]1ccc(C(N)=O)cc1.[Cl-],8.05%
6,CCOc1cc(/C=C/C(=O)c2ccc(OC)c(CN3CCOCC3)c2)cc(Br)c1O,-32.5%
7,COC(=O)[C@H](CC(C)C)NC(=O)CCc1nnc(COc2ccccc2)o1,19.4%
8,Cc1ccc2c(c1)C(c1ccc(F)cc1)N(C(=O)c1ccc(S(=O)(=O)N(C)C)cc1)CC(=O)N2 (stereo not drawn),-33.9%
9,CS(=O)(=O)N1CCN(C(=O)CCc2ccccc2)CC1,9.93%
10,O=C(Nc1ccncc1)Nc1cccc(Cl)c1Cl,-3.97%
11,Nc1c(C(=O)Nc2ccccc2)sc2nc(-c3ccco3)ccc12,10.3%
12,CC(C)(C)CN1CCN(Cc2cccnc2)CC1CCO (stereo not drawn),13.6%
13,COc1ccc(OC)c(C(c2nnnn2CCc2ccccc2)N2CCC(C(N)=O)CC2)c1 (stereo not drawn),-4.58%
14,COC(=O)c1ccc(NC(=O)Nc2cccc(F)c2)cc1,1.77%
15,O=C(Nc1nccs1)c1ccc(Cl)c(S(=O)(=O)N2CCOCC2)c1,-36%
16,O=C1[C@H]2[C@@H](c3ccc(F)cc3)N3C(=O)N(c4cccc(Cl)c4)C(=O)[C@@]3(Cc3ccc(Cl)cc3)[C@H]2C(=O)N1C1CCCCC1,7.9%
17,Cc1ocnc1C(=O)Nc1ccc(Cl)cc1,9.52%
18,CS(=O)(=O)c1ccc2nc(NC(=O)c3cccs3)sc2c1,-17.7%
19,O=C(CN1CCN(c2ccc(Cl)cc2)CC1)N1CCCC1,-22.6%
20,N#CCc1nn(-c2ccccc2)c2ncnc(N)c12,-4%
21,COc1ccc(N2CCN(C(=O)COC(=O)/C=C/c3ccc(OC(F)F)cc3)CC2)cc1,-1.18%
